# Laboratory results taken from ChEMBL document CHEMBL4888484, “Replenishing the malaria drug discovery pipeline: Screening and hit evaluation of the MMV Hit Generation Library 1 (HGL1) against asexual blood stage Plasmodium falciparum ,using a nano luciferase reporter read-out” (2022).
# About 540 (0.36%) of roughly 150,000 compounds showed an effect of 50% or more. Some of the results follow.
# System: Plasmodium falciparum
# Assay: Primary screen in NF54 nanoGlo assay, in single point, at 2uM, 72h; a lower Z score goes with more inhibition
# Format: functional, Erythrocyte
# Conditions: timepoint 72 hour
Compound,% Inhibition,Z score
O=C(CCn1ccccc1=O)N1CCOc2c(F)ccc(F)c21,-2%,0.31
CCOC1CC(N(C)C(=O)c2ccc(CN)cc2)C12CCCC2 (stereo unspecified),2%,-0.33
CS(=O)(=O)NCCOc1ncc(Cl)cc1Cl,-4%,0.58
Nc1nc(N2CCN(C(=O)[C@H]3CC[C@@H](O)CC3)CC2)cc(=O)[nH]1,-3%,0.34
CN1CCCC(N2C[C@@H]3CN(c4nc5ccccc5o4)C[C@]3(C)C2)C1=O (stereo partly specified),-2%,0.34
CC1CCC(N(CC(=O)NC(N)=O)C2CC2)CC1 (stereo unspecified),33%,-0.86
O=C(Nc1ccc2c(c1)OCO2)Nc1nn(Cc2ccc(Cl)cc2Cl)cc1Cl,-10%,1.38
Nc1nccnc1C(=O)NCC1(c2c(F)cccc2F)CCCC1,-7%,1.21
COc1cc(NC(C)=O)ccc1N[C@@H](C)c1cnn(C(C)C)c1,9%,-1
Cc1ccc2ncc(CNc3nnc(C(F)F)s3)n2c1,5%,-0.92
CCCn1ccc2cc(NS(=O)(=O)c3c(C)nn(C)c3Cl)ccc21,-8%,1.06
Cc1nc(-c2ccc(C)c(-n3cc(C(=O)N4CCN(c5cc(Cl)ccc5C)CC4)c(C)n3)c2)no1,-12%,1.74
COCc1cccc(C(=O)N2CCC[C@H]3CN(C)C[C@H]32)c1,0%,0.04
CCN(CC)C(=O)CS(=O)(=O)c1cncc(Br)c1,-5%,0.96
COCc1nc(NCCN2CCNC2=O)c2cnn(C)c2n1,-6%,0.82
C[C@H](O)CC(C)(C)CNC(=O)NCc1cc(C(F)(F)F)on1,-3%,0.45
O=C(CCN1CCc2onc(-c3cccc4ccccc34)c2C1)N1CCCC1,-1%,0.14
O=C(c1ccc(F)c(F)c1F)N1C[C@@H]2CN(CC3CCC3)C[C@]2(C(=O)O)C1,-16%,1.51
Brc1ccc2cc(Oc3ncccn3)ccc2c1,-19%,3.03
C=CCCS(=O)(=O)N1CCC[C@H](c2nncn2C(C)C)C1,-4%,0.52
COC(=O)c1ccccc1N1C(=O)[C@@H]2[C@H](Cc3ccccc3)N[C@]3(C(=O)Nc4c3ccc(Cl)c4C)[C@@H]2C1=O,-8%,0.97
Cc1ccc(C(C)NC(=O)N(C2CC2)C(C)C2CC2)o1 (stereo unspecified),-2%,0.22
Cn1ccc(-c2noc([C@@H](O)C3CCCC3)n2)n1,5%,-0.92
Cc1noc(C)c1CC(=O)Nc1ccc2c(c1)NC(=O)[C@H](C)O2,-5%,0.84
CCCN1C(=O)[C@H](Cc2ccccc2)NC12CCN(S(=O)(=O)c1ccc(Cl)c(Cl)c1)CC2,-7%,0.95
CCc1ccccc1OCCN1C[C@H](O)[C@@H](F)C1,-3%,0.6
COc1ccc(F)cc1C(=O)N1CCN(c2cc(=O)[nH]c(N)n2)CC1,-6%,1.26

Compound,% Inhibition,Z score
O=C1NC2=Nc3ccccc3NC(c3ccccc3)=C2[C@H](c2ccccc2Cl)N1,4%,-0.47
CC(C)(C)CC(C)(C)NCc1ccccn1,29%,-3.86
Cc1nc(Cn2nc3ccccc3n2)n(CCO)n1,-8%,0.8
O=C(NCC1COCCO1)c1cn(CC(O)c2ccsc2)nn1 (stereo unspecified),-12%,2.35
CCCn1ncc(C(=O)NCCNc2cc(C)ccn2)c1C,-21%,1.82
Cc1ccc(S(=O)(=O)N[C@@H](C)c2cc3n(n2)CCCC3)c(C)c1,-3%,0.55
COc1ccc(CN2CCCc3c2cccc3S(N)(=O)=O)nn1,-8%,0.81
OCCCNCc1cc2cc3c(cc2nc1OCc1cccc(F)c1)OCO3,-9%,0.99
O=C1NC2(CCCC2)C(=O)N1Cc1nnc(-c2ccccc2)o1,-30%,3.47
O=C(N[C@@H]1C[C@H]1c1ccc(Cl)cc1)C1CCCN1C1CCOCC1 (stereo partly specified),-7%,0.73
C[C@@H](C(=O)N1CCN(c2ccccn2)CC1)n1c2ccccc2c2cnn(C)c(=O)c21,-6%,1.18
CCC[C@H]1COCCN1Cc1cnc(OC)nc1,-7%,1.19
CCOc1cc(CNc2ccn(CCC(N)=O)n2)ccc1O[C@@H](C)C(=O)N(C)C,0%,0.06
NC[C@H]1CCCN1C(=O)c1ccnc(C2CC2)n1,0%,-0.06
CC1CN(C(=O)c2ccc3[nH]ncc3c2)CC(C)N1 (stereo unspecified),-1%,0.1
CN(CCc1ccccc1)C[C@@H]1OC[C@H](NC(=O)C2CCC2)[C@H]1O,3%,-0.41
N#Cc1[nH]ncc1NS(=O)(=O)c1ccc2c(c1)CCCC2,4%,-0.52
CCCCN(Cc1cccn1Cc1cccc(C)c1)C(=O)CN(CC(C)C)C(=O)c1ccc(OC)cc1,-6%,0.83
Cc1nc2c(c(N3CCC(NC(=O)Cc4cccnc4)CC3)n1)CCCC2,-10%,1.34
CC(O)CN(C(=O)NC1c2ccccc2CCCC1C)C(C)CO (stereo unspecified),4%,-0.79
CC(N=C1NC(=NC(C)c2ccccc2)c2ccccc21)c1ccccc1 (stereo unspecified),24%,-3.04
CC[C@H](C)[C@@H]1NC(=O)[C@@H]2C[C@H](NC(=O)c3ccc(-c4ccccc4)cc3)CN2C1=O,-12%,1.4
Cc1ccc(NC(=O)N2CCC(N3CC(F)(F)C[C@H]3COCC3CC3)CC2)c(C)c1,-3%,0.59
CC1NC(=O)CCC1NC(=O)C1CC1C1CC1 (stereo unspecified),-2%,0.25
CNc1c(-n2cc(C(=O)OC)c(C(=O)OC)c2C#N)c(=O)n(C)c(=O)n1C,35%,-4.5
Clc1cc(Cl)c2oc(N3CC[C@H](c4nn[nH]n4)C3)nc2c1,-8%,1.57
